Laboratory results as given in the supplement of paper PMC10300432.
Recombinant human monoclonal antibodies (heavy:light variable regions). ELISA EC50 on the named antigen, from 10 µg/ml down; IC50 against spike pseudovirus on HT1080-ACE2 cells, 48 h; lower = stronger. Calls: IC50 above 1,000 ng/ml = non-neutralizing; EC50 above 1,000 ng/ml = non-binder.

B1: C5258 (protein)
chain 1: QVQLQESGPGLVKPSETLSLTCTVSGGSISTYYWSWIRQPPGKGLEWIGYMYYSGSSYYNPSLKSRVTISVDTSKNQFSLKLTSVTAADTAVYYCASSDWGGMYYYDYWGQGTLVTVSS
chain 2: EIVLTQSPGTLSLSPGERATLSCRASQSVYSSYLAWYQQKPGQAPRLLIYGASSRATGIPDRFSGSGSGTDFSVTIRRLEPEDFAVYYCQQYGSTPWTFGQGTKVEIK
B2: C5260 (protein)
chain 1: EVQLVESGGGLVQPGGSLRLSYSASGFTFSEYAMHWVRQAPGRGLEYVSSISSKGDIRDYADSVKGRFTISRDNSKNTLYLQMSSLRVDDTAVYFCVKDVPPDTSMVTVFDYWGQGTLVTVSS
chain 2: DIQMTQSPSSLSASVGDRVTITCRASQRISMYLNWYQQKPGKAPKLLISAASSLQSGVPSRFSGSGSGTDFTLAISSLQPEDFATYYCQQSYVNPPTFGPGTKVEI
B3: C5261 (protein)
chain 1: QVQLVQSGAEVKKPGAAVKVSCKASGYMFSDYYLHWVRQAPGQGLEWMGIINPSAGSTTYAQKFQGRVTMTTDTSTSTVYMELSSLRSDDTAVYYCARDFFLIPAAIGLDYWGQGTLVTVSS
chain 2: EIVLTQSPGTLSLSPGERATLSCRASQSVSSRHLAWYQQKPGQAPRLLIYGASNRATGIPDRFSGSGSGTDFTLTISRLEPEDFAVYYCHQSGSSPPHTFGQGTTLEIK
B4: C5262 (protein)
chain 1: EVQLVESGGGLLQPGGSLRLSCVASGVTVSRNYMNWVRQAPGKGPEWVSVIFPGGSTFYLESVKGRFTISRDHSKNTLYLQMDRLRVDDTAVYYCARDLGPMGFDIWGQGTMVTVSS
chain 2: DIQLTQSPPFLSASVGDRVTITCRASEGFNNDLAWYQQKPGKAPKLLIYAASTLQSGVPSRFSGSGSGTEFTLTISSLQPEDFATYYCQHLNTHPPPFGGGTKVEIK
B5: C5264 (protein)
chain 1: QVQLVESGGGVVQPGRSLRLSCAASGFTFSNYGMHWVRQAPGKGLEWVAVISFDGSDKYYTGSVKGRFTISRDKSKNTLYLQMNSLRPEDTAVYYCAKDGPPYASGWYEGYYLDYWGQGTLVTVSS
chain 2: DIQMTQSPSSLSASVGDRVTITCRASQSISNFLNWFQQKPGKAPRLLIFAASSLQSGVPSRFSGSGSGTDFTLTISSLQPEDFATYYCQQSSSPPLTFGQGTRLEIK
B6: C5265 (protein)
chain 1: EVQLLESGGGLVQPGGSLRLSCAASGVTVSSEAMHWVRQAPGKGLEWVAGLSSSGGGTFYADSVKGRFTISRDTSKNTLYLQMTSLRAEDTALYYCTKETSQWLVTWFDPWGQGTLVTVSS
chain 2: DIQMTQSPSSLSASVGDRVTITCRASQTIINYLNWYQQKPGKAPMLLVYAASSLHTGVPSRFSGSGSGTDFTLTISGLQPEDFATYYCQQSYSAPPWTFGQGTKVDMK
B7: C5048 (protein)
chain 1: EVQLVESGGGLVQPGGSLRLSCSASGFTFSDSAMHWVRQAPGKGLEYVSAINGDGGSTYYADSVKGRFIISRDNSRNTLYLQMNSLRIADTALYYCVKEGDSSGYYPNWFDPWGQGTLVTVSS
chain 2: SYVLTQPPSVSVAPGQTARITCGGNEIGSKSVHWYLQKPGQAPVLVIFYDSDRPSGIPERFSGSNSGNTATLTITRVEAGDEADYFCQVWDSISVSVVFGGGTKLTVL

Target: SARS-CoV-2 Omicron BA.1 spike pseudovirus
Test: pseudovirus neutralization IC50; higher = weaker neutralization
Protocol: (§1)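 Single-round luciferase reporter pseudovirus mixed with antibody dilutions and put on HT1080-ACE2 clone 14 cells for 48 h; signal relative to no-antibody wells, four-parameter fit.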

**Q.** Which “pseudovirus neutralization IC50” value does the source give for B1 here?
**A.** 220 ng/mL

**Q.** How did the “pseudovirus neutralization IC50” value turn out when B2 was run?
**A.** > 1000 ng/mL

**Q.** B3 was tested. Which “pseudovirus neutralization IC50” value did it give?
**A.** > 1000 ng/mL

**Q.** B4 was tested. Which “pseudovirus neutralization IC50” value did it give?
**A.** 0.605 ng/mL

**Q.** For B5, which “pseudovirus neutralization IC50” value is on record?
**A.** > 1000 ng/mL

**Q.** How did the “pseudovirus neutralization IC50” value turn out when B6 was run?
**A.** > 1000 ng/mL

**Q.** How did the “pseudovirus neutralization IC50” value turn out when B7 was run?
**A.** 177 ng/mL

Target: SARS-CoV-2 Omicron BA.4/5 spike pseudovirus
Test: as above
Protocol: as §1

**Q.** For B1, which “pseudovirus neutralization IC50” value is on record?
**A.** > 1000 ng/mL

**Q.** Which “pseudovirus neutralization IC50” value does the source give for B2 here?
**A.** > 1000 ng/mL

**Q.** With B3 as the binder, how does the “pseudovirus neutralization IC50” value read?
**A.** > 1000 ng/mL

**Q.** Which “pseudovirus neutralization IC50” value does the source give for B4 here?
**A.** 0.639 ng/mL

**Q.** Which “pseudovirus neutralization IC50” value does the source give for B5 here?
**A.** > 1000 ng/mL

**Q.** Which “pseudovirus neutralization IC50” value does the source give for B6 here?
**A.** > 1000 ng/mL

**Q.** For B7, which “pseudovirus neutralization IC50” value is on record?
**A.** 848 ng/mL

Target: SARS-CoV-2 Wuhan-Hu-1 spike pseudovirus
Test: as above
Protocol: as §1

**Q.** For B1, which “pseudovirus neutralization IC50” value is on record?
**A.** 6.87 ng/mL

**Q.** B2 was tested. Which “pseudovirus neutralization IC50” value did it give?
**A.** > 1000 ng/mL

**Q.** How did the “pseudovirus neutralization IC50” value turn out when B3 was run?
**A.** > 1000 ng/mL

**Q.** B4 was tested. Which “pseudovirus neutralization IC50” value did it give?
**A.** 1.19 ng/mL

**Q.** Which “pseudovirus neutralization IC50” value does the source give for B5 here?
**A.** > 1000 ng/mL

**Q.** How did the “pseudovirus neutralization IC50” value turn out when B6 was run?
**A.** > 1000 ng/mL

**Q.** Which “pseudovirus neutralization IC50” value does the source give for B7 here?
**A.** 63.9 ng/mL

Target: SARS-CoV-2 Wuhan-Hu-1 spike receptor-binding domain
Test: ELISA binding EC50; higher = weaker binding; ELISA of recombinant human antibody on coated antigen, from 10 µg/ml in fourfold dilutions; four-parameter fit.

**Q.** Which “ELISA binding EC50” value does the source give for B1 here?
**A.** 5.4 ng/mL

**Q.** Which “ELISA binding EC50” value does the source give for B2 here?
**A.** 2.3 ng/mL

**Q.** For B3, which “ELISA binding EC50” value is on record?
**A.** 8 ng/mL

**Q.** Which “ELISA binding EC50” value does the source give for B4 here?
**A.** 3.11 ng/mL

**Q.** How did the “ELISA binding EC50” value turn out when B5 was run?
**A.** 4.06 ng/mL

**Q.** Which “ELISA binding EC50” value does the source give for B6 here?
**A.** 6.46 ng/mL

**Q.** Which “ELISA binding EC50” value does the source give for B7 here?
**A.** 6.25 ng/mL
